Results published in ChEMBL document CHEMBL4888484, “Replenishing the malaria drug discovery pipeline: Screening and hit evaluation of the MMV Hit Generation Library 1 (HGL1) against asexual blood stage Plasmodium falciparum ,using a nano luciferase reporter read-out” (2022).
Out of some 150,000 compounds screened, about 540 (0.36%) showed an effect of 50% or more. The list shows a part of the results.

What follows are compounds tested on Plasmodium falciparum (assay: Primary screen in NF54 nanoGlo assay, in single point, at 2uM, 72h; a lower Z score goes with more inhibition). Conditions: timepoint 72 hour.
Format: functional, Erythrocyte
In the case of `O=C(C1=Cc2cc(Br)ccc2OC=C1)N1CCOCC1`, the “% Inhibition” value is reported as 28% and the Z score is reported as -3.79. With `O=C(Nc1nc2c(s1)CN(S(=O)(=O)Cc1cccc(F)c1)CC2)c1cccs1` the “% Inhibition” value was -4% and the Z score was 0.63. With `CC(C)(C)C(=O)/C(=N\OC(=O)Nc1ccc(Cl)cc1)n1cncn1` the “% Inhibition” value was 41% and the Z score was -5.27. In the case of `Cc1ccc(NC(=O)CCc2nc(-c3cc4ccccc4nc3O)no2)cc1Cl`, the “% Inhibition” value is reported as 5% and the Z score is reported as -1. With `CC1(C(=O)NC[C@H]2Cc3ccccc3CN2)CC=CC1` the “% Inhibition” value was 5% and the Z score was -0.84. In the case of `CCc1ccccc1NC(=O)c1cn(-c2ncccc2-c2nc(C(C)C)no2)cn1`, the “% Inhibition” value is reported as -11% and the Z score is reported as 1.47. In the case of `COc1ccc2c(c1)CCN(c1cc3nncn3c(C)n1)CC2`, the “% Inhibition” value is reported as 3% and the Z score is reported as -0.36. For `COC1(CNC(C)(C)C(=O)OC(C)(C)C)CCC1`, the “% Inhibition” value was -1% and the Z score was 0.18. `Cc1nc(NC(=O)N2CC[C@H](CO)C2)ccc1Br` was tested, and the “% Inhibition” value was -7% and the Z score was 0.69. In the case of `CN(C(=O)c1cccc2cnccc12)C1CCN(c2cnccn2)CC1`, the “% Inhibition” value is reported as 1% and the Z score is reported as -0.2. For `COc1ccc(N2CCN(C(=O)c3cc(-c4cccc(F)c4)ns3)CC2)cc1`, the “% Inhibition” value was -1% and the Z score was 0.18. `COC1CC(NC(=O)Cc2cccc(N)c2)C1(C)C` (stereo not drawn) was tested, and the “% Inhibition” value was -10% and the Z score was 1.74. With `CCOC(=O)CN(C)C1CN(C(=O)c2cc(C)nc3onc(C)c23)C1` the “% Inhibition” value was 3% and the Z score was -0.56. For `CCN(C(C)=O)c1nc(CN(C)Cc2cccc(F)c2)cs1`, the “% Inhibition” value was -7% and the Z score was 0.95. With `O=C(Nc1ccnn1C1CCN(Cc2ccc3nsnc3c2)CC1)[C@H]1CCOC1` the “% Inhibition” value was 4% and the Z score was -0.5. For `CC(C)CC(=O)N1C[C@@H](Oc2cccnc2)C[C@H]1C(=O)NC1CC1`, the “% Inhibition” value was -1% and the Z score was 0.16. For `CCN1CCN(c2ncnc3c2sc(=S)n3-c2ccccc2)CC1`, the “% Inhibition” value was -1% and the Z score was 0.18. With `Cc1nnc(NC(=O)N[C@@]2(C)CCOC2)s1` the “% Inhibition” value was -2% and the Z score was 0.29. `CCS(=O)(=O)Oc1ccccc1CN(C(=O)CC(C)C)C(C)C` was tested, and the “% Inhibition” value was -6% and the Z score was 1.24. In the case of `Cn1c(Cn2cncn2)nnc1C1CCN(C(=O)CC2CCCCC2)CC1`, the “% Inhibition” value is reported as 0% and the Z score is reported as -0.07. With `Cc1ccccc1Nc1nc(N)nc(COC(=O)[C@@H](NC(=O)c2ccccc2)C(C)C)n1` the “% Inhibition” value was -5% and the Z score was 0.41. For `O=S(=O)(CCN1CCc2cncnc2C1)c1ccccc1`, the “% Inhibition” value was -1% and the Z score was 0.15. `CCOC(C)c1nccn1CC1CCCO1` (stereo not drawn) was tested, and the “% Inhibition” value was -8% and the Z score was 1.17. In the case of `CC1(C)C(=O)N(Cc2ccc(F)cc2)C(=O)N1CCCCOc1ccccc1`, the “% Inhibition” value is reported as 10% and the Z score is reported as -1.13. For `Cc1cc(-c2cccc(C(=O)NCCN3CCCC3)c2)nc(N)n1`, the “% Inhibition” value was 2% and the Z score was -0.35. For `COc1c(C(=O)Nc2ccc(F)cc2)oc2ccc(NC(=O)c3cccc(Cl)c3)cc12`, the “% Inhibition” value was -15% and the Z score was 1.77. With `Cc1cccc2ncn([C@@H](C)Cc3cccnc3)c(=O)c12` the “% Inhibition” value was -15% and the Z score was 2.12. In the case of `O=C(CCc1nc2cc(Cl)ccc2s1)N1CCN2CCC1C2` (stereo not drawn), the “% Inhibition” value is reported as 1% and the Z score is reported as -0.08. `COc1ccc2oc(CN3CCc4ccc(S(C)(=O)=O)cc4CC3)cc2c1` was tested, and the “% Inhibition” value was 20% and the Z score was -2.5. For `O=c1[nH]ccc2c1N(S(=O)(=O)c1cnn(C3CCCC3)c1)CCC2`, the “% Inhibition” value was 7% and the Z score was -1.05. With `COc1cccc(CN2CCC[C@H](NCc3c(C)nn(-c4ccc(F)cc4)c3C)C2)c1` the “% Inhibition” value was 7% and the Z score was -0.87. In the case of `Cc1c(CC(=O)N2CCC2)c2c(n1Cc1ccccc1F)CCCC2=O`, the “% Inhibition” value is reported as 5% and the Z score is reported as -0.72. `CC1(C)COCCN1Cc1nc(-c2cccnc2)no1` was tested, and the “% Inhibition” value was -31% and the Z score was 3.62. For `COc1ccc([C@H](CNC(=O)c2n[nH]nc2C)N2CCCCC2)cc1`, the “% Inhibition” value was -6% and the Z score was 0.71. For `Cc1ccc(-c2nc(C#N)c(S(=O)(=O)Cc3ccccc3F)o2)cc1`, the “% Inhibition” value was -2% and the Z score was 0.28. With `COC(=O)C[C@H](C)NC(=O)Nc1ccc(F)c(C)c1` the “% Inhibition” value was -9% and the Z score was 0.87. With `CCc1ccc(C(C)(C)NS(=O)(=O)[C@@H](C)C(=O)N(C)C)cc1` the “% Inhibition” value was 3% and the Z score was -0.45. `Cc1nc(C(C)C)sc1C(=O)N1CC[C@]23C(=O)N(CC(=O)NCCCOc4cccc(c4)[C@H]12)c1ccccc13` was tested, and the “% Inhibition” value was -11% and the Z score was 1.61. In the case of `O=C(c1cnccn1)N1C2C=CCC1CC2` (stereo not drawn), the “% Inhibition” value is reported as -2% and the Z score is reported as 0.4. For `O=C(O)c1ccccc1CCC(=O)N1CC(c2ccccc2)C2CCCC21` (stereo not drawn), the “% Inhibition” value was 23% and the Z score was -2.96. With `CC(C)(C)OC(=O)N1CCCC(NCC(O)c2ccsc2)C1` (stereo not drawn) the “% Inhibition” value was -4% and the Z score was 0.46. In the case of `CN(C)c1cc(Cn2c(=O)[nH]c3ccccc3c2=O)ccn1`, the “% Inhibition” value is reported as -19% and the Z score is reported as 1.78. For `O=C(NCc1ccccn1)c1ccc(Nc2c(Oc3ccccc3)cnn(-c3ccc(F)cc3)c2=O)cc1`, the “% Inhibition” value was -2% and the Z score was 0.16. For `COc1ccc(CNC(=O)Cn2nc(C(=O)N3CCCC3)ccc2=O)cc1`, the “% Inhibition” value was -8% and the Z score was 1.1. For `CC(C)(C)[C@H]1CCCN(C(=O)CCNC(N)=O)C1`, the “% Inhibition” value was -6% and the Z score was 0.98. With `Cc1cccc(N2CC[C@@H](C(=O)N3CCN(Cc4ccccc4)CC3)C2=O)c1C` the “% Inhibition” value was 13% and the Z score was -1.6. `CON(C)c1ncnc2scc(-c3ccc(Cl)cc3)c12` was tested, and the “% Inhibition” value was -2% and the Z score was 0.36. With `Cn1ncc2c(=O)n(Cc3nc4ccccc4o3)nnc21` the “% Inhibition” value was -10% and the Z score was 1.28. In the case of `CN(C)C(=O)CO[C@H]1CCOC[C@H]1Nc1nc(N)nc2[nH]ncc12`, the “% Inhibition” value is reported as -6% and the Z score is reported as 0.94. In the case of `CCc1cnc(CCNc2nc3c(cnn3C(C)(C)C)c(=O)[nH]2)s1`, the “% Inhibition” value is reported as -5% and the Z score is reported as 0.99. `Cc1cc(C)c(C(=O)N2CC(N3CCOCC3)C2)c(=O)[nH]1` was tested, and the “% Inhibition” value was -13% and the Z score was 1.11. With `Cc1ccc(Nc2c(-c3c[nH]c4ccccc34)nc3cnccn23)c(Br)c1` the “% Inhibition” value was 7% and the Z score was -0.82. In the case of `Cc1ncsc1CCNC(=O)[C@@H]1CCCN1S(C)(=O)=O`, the “% Inhibition” value is reported as -15% and the Z score is reported as 2.94. For `O=C(Nc1cnns1)c1cccc(CN2[C@@H]3CC[C@H]2C[C@@H](O)C3)c1`, the “% Inhibition” value was -3% and the Z score was 0.34. With `CC(C)C1CN(C(=O)NC2CCc3[nH]cnc3C2)CCCO1` (stereo not drawn) the “% Inhibition” value was 5% and the Z score was -0.88. In the case of `Oc1ccc(Cc2ccccc2)cc1CNc1ccc2oc(Cc3ccc(Cl)cc3)nc2c1`, the “% Inhibition” value is reported as 1% and the Z score is reported as -0.07. For `CCCCN1CCN(C(=O)c2ccc(NC(=O)C3CCC3)cc2)CC1=O`, the “% Inhibition” value was -6% and the Z score was 0.54. `CC(C)NC(=O)CCNC(=O)NCCc1cccc(F)c1F` was tested, and the “% Inhibition” value was -7% and the Z score was 0.74. In the case of `CC(C)c1ccc(CNc2nc(-c3ccco3)n[nH]2)cc1`, the “% Inhibition” value is reported as -1% and the Z score is reported as 0.24. With `CN(C)c1cc(C(F)(F)F)nc(N2CCC(CNS(C)(=O)=O)CC2)n1` the “% Inhibition” value was -1% and the Z score was 0.07. `CC1(C)CN(CN2CCN(c3ccccc3)CC2)c2nnc(-c3ccccc3)n2C1` was tested, and the “% Inhibition” value was 31% and the Z score was -3.96. `Cc1c(N2CCC(C(=O)NCCCN(C)C3CCCCC3)CC2)c(=O)n(C)c(=O)n1-c1ccccc1` was tested, and the “% Inhibition” value was -10% and the Z score was 1.95. For `CN(CCS(C)(=O)=O)C(=O)c1occc1-c1ccc(F)cc1`, the “% Inhibition” value was 12% and the Z score was -1.5. In the case of `COC1CCN(C(=O)c2cc(C3CC3)[nH]n2)CC1`, the “% Inhibition” value is reported as -9% and the Z score is reported as 1.63. For `Cc1n[nH]c(C)c1C(C)CC(=O)NC(c1ccccc1)C1CCCO1` (stereo not drawn), the “% Inhibition” value was -7% and the Z score was 0.86. With `CCc1cccc(CC)c1N1C(=O)C2CCC(c3ccccc3)CC2C1=O` (stereo not drawn) the “% Inhibition” value was -6% and the Z score was 0.78. For `CCN(CC)C(=O)C1=CC(c2ccc3c(c2)OCO3)=NS(=O)(=O)N1C`, the “% Inhibition” value was -13% and the Z score was 2.42. With `O=C(COc1ccccc1)Nc1ccc(N2CCCN(Cc3ccc(Cl)c(Cl)c3)C2=O)cc1` the “% Inhibition” value was -16% and the Z score was 1.57. With `Cc1cccc(NC(=O)c2ccc(=O)n(CCC(=O)NC3CCCC3)n2)c1` the “% Inhibition” value was 2% and the Z score was -0.19. In the case of `N#Cc1ncccc1S(=O)(=O)NCc1noc(-c2ccccc2)n1`, the “% Inhibition” value is reported as -12% and the Z score is reported as 1.1. With `CCn1c(C)nnc1COc1ccc2c(c1)CCC2` the “% Inhibition” value was -18% and the Z score was 2.31. In the case of `Cc1ccc(S(=O)(=O)Nc2c(S(=O)(=O)c3ccc(C)cc3)c3nc4ccccc4nc3n2CCC(C)C)cc1`, the “% Inhibition” value is reported as 85% and the Z score is reported as -10.94. For `O=C(c1cccs1)N1CCOC2CCCCC21` (stereo not drawn), the “% Inhibition” value was -13% and the Z score was 1.56. `CN(CCc1ccccn1)C(=O)/C(=C/c1ccccc1)NC(=O)c1ccccc1` was tested, and the “% Inhibition” value was -3% and the Z score was 0.62. `COc1ccc(CC(=O)N2CCN(c3nc(-c4ccccc4)no3)CC2)cc1` was tested, and the “% Inhibition” value was -12% and the Z score was 1.69. With `CCN(Cc1cc(-c2ccc(C)cc2C)on1)C(=O)NC(C)C` the “% Inhibition” value was 6% and the Z score was -0.95. In the case of `Cc1ccc(CS(=O)(=O)N(CCO)C2CCC2)c(F)c1`, the “% Inhibition” value is reported as -5% and the Z score is reported as 0.77. With `CCNC(=O)[C@H]1Cc2ccccc2CN1C(=O)c1ccn(C)c(=O)c1` the “% Inhibition” value was -14% and the Z score was 1.2. For `CC[C@H]1CN(Cc2ccnn2-c2ccccc2)CCN1C(C)C`, the “% Inhibition” value was -3% and the Z score was 0.36. `Cc1ccc(CNC(C)CC(O)c2ccc(F)cc2)nc1` (stereo not drawn) was tested, and the “% Inhibition” value was 2% and the Z score was -0.21. `O=C(NC[C@H]1COc2ccccc2O1)c1ccccc1-c1ccccc1` was tested, and the “% Inhibition” value was -12% and the Z score was 1.83. `Cc1ccc(NC(=O)N2CC[C@H]3C(=O)NCCCCCN(Cc4cccnc4)[C@@H]3C2)cc1C` was tested, and the “% Inhibition” value was -9% and the Z score was 1.34. `CN(Cc1ccccc1)c1cnn(C[C@H](O)CO)c(=O)c1` was tested, and the “% Inhibition” value was -6% and the Z score was 0.75. In the case of `O=C(c1cnc(O)cn1)N1CCC([C@@H](O)CCc2ccccc2)CC1`, the “% Inhibition” value is reported as -15% and the Z score is reported as 2.16.
